Measurements: paper PMC4336329 (PLoS ONE, 2015)
Hit rate of the full screen: of about 310,000 compounds, about 14,000 (4.5%) showed an effect of 50% or more. The effect is printed as a negative number. This is one part of the list.

The molecules below were run against human ether-à-go-go-related gene (hERG) potassium channel (human, UniProt Q12809) (assay: primary screen, population patch clamp on CHO cells stably expressing hERG).
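Also: peak tail current of the secondary pulse compared with the same well before compound.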

Sequence of human ether-à-go-go-related gene (hERG) potassium channel (Q12809 whole entry, looked up): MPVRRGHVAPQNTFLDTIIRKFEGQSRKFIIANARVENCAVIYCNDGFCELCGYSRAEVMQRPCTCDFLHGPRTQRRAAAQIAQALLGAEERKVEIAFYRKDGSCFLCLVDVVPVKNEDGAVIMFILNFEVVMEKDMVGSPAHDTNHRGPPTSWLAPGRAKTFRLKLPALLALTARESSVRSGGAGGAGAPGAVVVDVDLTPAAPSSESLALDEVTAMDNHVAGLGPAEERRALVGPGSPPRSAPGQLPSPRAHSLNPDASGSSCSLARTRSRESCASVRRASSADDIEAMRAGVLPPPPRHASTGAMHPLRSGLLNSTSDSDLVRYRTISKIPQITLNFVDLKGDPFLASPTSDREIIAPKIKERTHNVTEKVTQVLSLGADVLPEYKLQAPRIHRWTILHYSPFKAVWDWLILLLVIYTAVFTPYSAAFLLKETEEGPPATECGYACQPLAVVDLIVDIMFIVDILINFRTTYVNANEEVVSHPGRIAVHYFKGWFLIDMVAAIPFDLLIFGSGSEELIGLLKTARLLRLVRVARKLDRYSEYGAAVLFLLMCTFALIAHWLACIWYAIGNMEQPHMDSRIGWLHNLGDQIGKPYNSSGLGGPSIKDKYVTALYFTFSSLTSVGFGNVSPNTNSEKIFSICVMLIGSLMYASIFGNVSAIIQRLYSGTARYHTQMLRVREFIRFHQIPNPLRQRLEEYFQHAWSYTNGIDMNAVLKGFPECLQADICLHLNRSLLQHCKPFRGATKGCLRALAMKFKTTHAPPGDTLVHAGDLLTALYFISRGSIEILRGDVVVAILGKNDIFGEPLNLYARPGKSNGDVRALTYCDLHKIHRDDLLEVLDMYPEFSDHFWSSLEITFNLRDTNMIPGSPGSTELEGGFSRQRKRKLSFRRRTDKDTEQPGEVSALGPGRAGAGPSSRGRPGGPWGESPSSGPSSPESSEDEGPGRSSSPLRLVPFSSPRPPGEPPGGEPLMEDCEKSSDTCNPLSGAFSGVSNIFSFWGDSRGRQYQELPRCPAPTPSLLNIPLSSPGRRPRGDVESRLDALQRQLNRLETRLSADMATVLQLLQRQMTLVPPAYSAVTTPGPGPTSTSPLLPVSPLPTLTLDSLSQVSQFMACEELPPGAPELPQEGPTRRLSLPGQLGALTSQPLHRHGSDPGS

SMILES | hERG current change (%, negative = inhibition) at 10uM [%]
COCCNC(=O)c1ccc(Cn2c(=S)[nH]c3cc4c(cc3c2=O)OCO4)cc1 | 16.5
O=C1c2ccccc2C(=O)N1n1cccc1 | 8.7
CCCCc1c(O)nc(SCC(=O)N2CCCCC2)n(-c2ccccc2C)c1=O | 12.4
Cc1ccc(CNC(=O)CN2CCN(Cc3ccc(Cl)cc3)C2=O)cc1 | -20.9
O=C(N/N=C1\CC2CC=CC12)c1ccc(Br)cc1 (stereo not shown) | 9.05
COc1ccccc1NC(=O)C(C)OC(=O)C1CC(=O)N(c2ccc3c(c2)OCCO3)C1 (stereo not shown) | 4.97
Cl.OCCN1CCN(CC/C=C2/c3ccccc3Sc3ccc(Cl)cc32)CC1 | -68.8
Cc1ccc2[nH]c3c(c2c1)CN(C(=O)CN1CCCCC1)CC3 | -31.8
COc1cccc(OC)c1C(=O)NC(C)CCc1ccccc1 (stereo not shown) | -19.1
CC(=O)c1c(O)c2cccc3c2n(c1=O)CCC3 | 13.7
CCOC(=O)c1sc(NC(=O)c2cc(-c3ccc(C)cc3)nc3ccccc23)c(C#N)c1C | 5.31
CCC(=O)N(Cc1cc(=O)[nH]c2ccccc12)c1ccc(OC)cc1 | -25.1
COc1cccc(CC(=O)Nc2ccc3c(c2)CCC3)c1 | 10.1
O=C(COC(=O)c1ccccc1C(=O)c1ccccc1)Nc1ccc(SC(F)F)cc1 | -2.06
COc1ccc(NC(=O)CC(=O)Nc2ccc(OC)cc2)cc1 | -3.55
CCn1c2ccccc2c2nnc(SCC(=O)c3ccccc3)nc21 | -2.15
O=c1oc2cc([N+](=O)[O-])ccc2nc1/C=C(\O)c1cccc(Br)c1 | 4.15
COc1ccc(NC(=O)c2ccccc2)c([N+](=O)[O-])c1 | 1.48
N#CCCn1c(SCC(=O)Nc2ccc(N3CCOCC3)cc2)nc2ccccc21 | -7.68
O=[N+]([O-])c1c(NCCO)cc(N2CCN(Cc3ccc4c(c3)OCO4)CC2)c2nonc12 | -27.6
COc1ccccc1NC(=O)C1CCCCN1S(=O)(=O)c1ccc(F)cc1 (stereo not shown) | -27.9
Cc1ccccc1OCc1nnc(SCC(=O)N2CCc3ccccc32)n1C | -0.724

SMILES | hERG current change (%, negative = inhibition) at 10uM [%]
Cc1ccc(S(=O)(=O)NCC(=O)N(CC(=O)NCc2ccco2)Cc2ccc(F)cc2)cc1 | 5.19
C/C(=N\NC(=O)c1ccccc1)c1ccc(N2CCOCC2)cc1 | 13.1
Cc1onc(-c2c(Cl)cccc2Cl)c1/C(N)=N/OC(=O)C1CC1 | 13.6
Cc1cccn2c(=O)c(/C=C(\C#N)C(N)=O)c(N3CCN(Cc4ccc5c(c4)OCO5)CC3)nc12 | -39.7
COc1ccc(C(C(=O)NC(C)(C)C)N(Cc2ccco2)C(=O)CCC(=O)Nc2ccccn2)cc1 (stereo not shown) | 1.22
Cc1c(C(=O)Nc2ccc3c(c2)OCCO3)oc2ccc(Br)cc12 | 0.46
CCC(=O)Nc1ccc(NC(=O)CSc2nnnn2-c2ccc(OC)cc2)cc1 | 19.1
CCC1Oc2ccccc2N(CC(=O)NCCCN2CCCCC2C)C1=O (stereo not shown) | -3.17
CCOC(=O)[C@H]1O[C@@H]1C(=O)N[C@@H](CC(C)C)C(=O)NCCC(C)C | 27.7
CCCCCN(C(=O)CCC(=O)OC(C)C(=O)Nc1cccc(C#N)c1)c1c(N)n(CCCC)c(=O)[nH]c1=O (stereo not shown) | 17.5
Cc1nn(C)c(C)c1CN(Cc1nc(-c2ccc(F)cc2F)oc1C)C1CC1 | -6.87
Cc1cccc(N(Cc2ccccc2)C(=O)CN2C(=O)NC3(CCCC3)C2=O)c1 | -14.4
Cc1ccc(Nc2ncnc(N)n2)cc1C | 14.8
Cc1ccc(CN(Cc2cccnc2)C(=S)Nc2cc(Cl)ccc2C)cc1 | 3.89
O=S(=O)(c1ccc(NCc2ccc(F)cc2)nc1)N1CCCC1 | -6.22
Fc1ccc(-n2c(Cc3ccccc3)nnc2SCc2nc(-c3ccc(Cl)cc3)no2)cc1 | -1.6
COc1ccc(CNc2ccc(C)c(C)c2)c(OC)c1OC.O=C(O)C(=O)O | 2.1
Cc1cc(C)cc(N(C(C)C(=O)NCCC2=CCCCC2)S(C)(=O)=O)c1 (stereo not shown) | -17.5
Cc1onc(-c2ccccc2Cl)c1C(=O)N1CCC(C)CC1 | 4
CC(=O)N1CCC2(CC1)CC(=O)c1cc(OCC(=O)NCc3ccco3)ccc1O2 | -19.3
COc1ccc(OC)c(NC(=O)c2ccc(-c3cccs3)cc2)c1 | -6.69
